Assay results from article PMC4242493.
Some of the results follow. The list includes weakly bound sequences.

Each sequence was assayed against MaxL homodimer (UniProt P61244) (assay: universal protein-binding microarray (PBM)). Conditions: PBS-based mixture, 10 nM His-tagged protein dimer, 2% milk, 200 ng/uL BSA, 50 ng/uL salmon testes DNA, 0.02% TX-100; detection with Alexa 488 anti-His …; high values mean tight binding; most listed sequences are background and not binding sites; double strand, one strand shown.
UniProt P61244, sequence (P61244 whole entry): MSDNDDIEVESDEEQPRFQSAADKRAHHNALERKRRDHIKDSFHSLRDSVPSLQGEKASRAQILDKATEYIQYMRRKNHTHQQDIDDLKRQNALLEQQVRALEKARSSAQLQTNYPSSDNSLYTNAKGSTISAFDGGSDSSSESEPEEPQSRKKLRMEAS
GGGAAGAC gave a binding signal (normalized occupancy) of 0.0749. Sequence CACGCCCG has a binding signal (normalized occupancy) of 0.0926. Sequence AGGTATGG has a binding signal (normalized occupancy) of 0.0844. In the case of CCTCTGAC, the binding signal (normalized occupancy) is reported as 0.073. Sequence AGTCCCAA has a binding signal (normalized occupancy) of 0.0694. In the case of GCGTGTAA, the binding signal (normalized occupancy) is reported as 0.0923. GCCACTAA showed a binding signal (normalized occupancy) of 0.0699. GAGCACCC was tested, and the binding signal (normalized occupancy) was 0.0744. In the case of GGTGCCAA, the binding signal (normalized occupancy) is reported as 0.0743. ACGGATCC was tested, and the binding signal (normalized occupancy) was 0.0712. In the case of AGACCTCA, the binding signal (normalized occupancy) is reported as 0.0749. ACTTATCT gave a binding signal (normalized occupancy) of 0.0801. With GTGGTGCA the binding signal (normalized occupancy) was 0.0801. ACTCCACT gave a binding signal (normalized occupancy) of 0.073. CCGATGAG gave a binding signal (normalized occupancy) of 0.0731. For GCGTTGTA, the binding signal (normalized occupancy) was 0.0819. GATACCCA gave a binding signal (normalized occupancy) of 0.0758. ATAGCCCG gave a binding signal (normalized occupancy) of 0.0721. CGTTCAAG showed a binding signal (normalized occupancy) of 0.0769. CGGGGGGA showed a binding signal (normalized occupancy) of 0.072. GCTAAACA gave a binding signal (normalized occupancy) of 0.0713. In the case of CACGGAGA, the binding signal (normalized occupancy) is reported as 0.0728. AAGTACGA showed a binding signal (normalized occupancy) of 0.0766. Sequence CACCCGAG has a binding signal (normalized occupancy) of 0.0705. For CACGTGCA, the binding signal (normalized occupancy) was 0.588. Work on ACAGACCT yielded a binding signal (normalized occupancy) of 0.0767. CACTGACG showed a binding signal (normalized occupancy) of 0.0731. In the case of ATCCGCCA, the binding signal (normalized occupancy) is reported as 0.0773. With CCTTAGCA the binding signal (normalized occupancy) was 0.0726. TAACACCA gave a binding signal (normalized occupancy) of 0.077. CGTATGAG gave a binding signal (normalized occupancy) of 0.0785. GTCGGCGA gave a binding signal (normalized occupancy) of 0.0718. For ACACGCAG, the binding signal (normalized occupancy) was 0.0812. GGTCAGCA showed a binding signal (normalized occupancy) of 0.079. GTAATGAA showed a binding signal (normalized occupancy) of 0.0803. AGCCTTCA showed a binding signal (normalized occupancy) of 0.0757. Work on AATTGGAG yielded a binding signal (normalized occupancy) of 0.0717. CCTAAATA gave a binding signal (normalized occupancy) of 0.0766. AGGCCAAC showed a binding signal (normalized occupancy) of 0.0745. AAGAGCGT gave a binding signal (normalized occupancy) of 0.0807. Sequence CCTGTGCG has a binding signal (normalized occupancy) of 0.0733. Work on ATCTGTGA yielded a binding signal (normalized occupancy) of 0.0729. GAACTCAC gave a binding signal (normalized occupancy) of 0.0737. CACAAGTC was tested, and the binding signal (normalized occupancy) was 0.0787. Work on CCACGAAA yielded a binding signal (normalized occupancy) of 0.0726. With ATCCTTAA the binding signal (normalized occupancy) was 0.0708. Sequence CCGCCACC has a binding signal (normalized occupancy) of 0.0762. Sequence ATTCGGAA has a binding signal (normalized occupancy) of 0.075. Work on AGGAAGCC yielded a binding signal (normalized occupancy) of 0.0714. For ATTCTCTC, the binding signal (normalized occupancy) was 0.0771. For ACATATTA, the binding signal (normalized occupancy) was 0.0797. CGAGTGAA showed a binding signal (normalized occupancy) of 0.0696. For GCTGCGTA, the binding signal (normalized occupancy) was 0.0737. ATGAGCAT showed a binding signal (normalized occupancy) of 0.0887. In the case of ACCCACGT, the binding signal (normalized occupancy) is reported as 0.0984. Work on ACAAGAAC yielded a binding signal (normalized occupancy) of 0.0777. Sequence AGAGAAGA has a binding signal (normalized occupancy) of 0.0737. With CATATGAA the binding signal (normalized occupancy) was 0.088. Sequence CCTAGGAC has a binding signal (normalized occupancy) of 0.0756. ACGATCGA was tested, and the binding signal (normalized occupancy) was 0.0749. For GACACGTC, the binding signal (normalized occupancy) was 0.083. In the case of AGGCTAGC, the binding signal (normalized occupancy) is reported as 0.0737. ACGCGACA gave a binding signal (normalized occupancy) of 0.075. CTTAGCCC was tested, and the binding signal (normalized occupancy) was 0.0688. CGTAAAAA gave a binding signal (normalized occupancy) of 0.0732. For GTAAGGCA, the binding signal (normalized occupancy) was 0.0825. With CAGGCAAC the binding signal (normalized occupancy) was 0.0725. In the case of CCGGCAAG, the binding signal (normalized occupancy) is reported as 0.0733. CGGACCCC was tested, and the binding signal (normalized occupancy) was 0.0732. Sequence AGAGTACT has a binding signal (normalized occupancy) of 0.0714. For ATGTCTGA, the binding signal (normalized occupancy) was 0.0806. With CAACGTAA the binding signal (normalized occupancy) was 0.0776. CGGGCCCC gave a binding signal (normalized occupancy) of 0.0686. TGAGTCAA was tested, and the binding signal (normalized occupancy) was 0.0767. ATATTGAA showed a binding signal (normalized occupancy) of 0.0809. With CGCAGGCG the binding signal (normalized occupancy) was 0.0716. AGCAGGCG was tested, and the binding signal (normalized occupancy) was 0.078. CTCCCAAG was tested, and the binding signal (normalized occupancy) was 0.0733. For TCAATCAA, the binding signal (normalized occupancy) was 0.0799. AGATTAAT was tested, and the binding signal (normalized occupancy) was 0.078. CAGCCAAA gave a binding signal (normalized occupancy) of 0.0719. ACTATCCG was tested, and the binding signal (normalized occupancy) was 0.0731. ATCTGTGC was tested, and the binding signal (normalized occupancy) was 0.0792. With CGGCATTC the binding signal (normalized occupancy) was 0.0756. TAACCTGA gave a binding signal (normalized occupancy) of 0.0789. CAGCAGGG gave a binding signal (normalized occupancy) of 0.0786. TGCGTCCA gave a binding signal (normalized occupancy) of 0.0781. With AAAGCGAT the binding signal (normalized occupancy) was 0.0684. CGACAATC gave a binding signal (normalized occupancy) of 0.0719. AAATTTTC was tested, and the binding signal (normalized occupancy) was 0.0678. For CTAATGAC, the binding signal (normalized occupancy) was 0.0773. AAAGCGCT gave a binding signal (normalized occupancy) of 0.0654. GGAGTGGA showed a binding signal (normalized occupancy) of 0.0751. AGTCACCG was tested, and the binding signal (normalized occupancy) was 0.0724. AATCCTAG gave a binding signal (normalized occupancy) of 0.072. CACCGACC gave a binding signal (normalized occupancy) of 0.0761. With ACTTTCGA the binding signal (normalized occupancy) was 0.0725. In the case of GCACCGGA, the binding signal (normalized occupancy) is reported as 0.0685. With GTTAATGA the binding signal (normalized occupancy) was 0.0786. TCCGTTAA gave a binding signal (normalized occupancy) of 0.0746. With ATTATGAA the binding signal (normalized occupancy) was 0.0779. For ACTAACCT, the binding signal (normalized occupancy) was 0.0752. ATAGCTAC was tested, and the binding signal (normalized occupancy) was 0.0782. ATCCATGC was tested, and the binding signal (normalized occupancy) was 0.0942. In the case of ACTTAACA, the binding signal (normalized occupancy) is reported as 0.0749. AATTGCAG showed a binding signal (normalized occupancy) of 0.0723. For TGCGTAAA, the binding signal (normalized occupancy) was 0.0792. For GGGTCAAA, the binding signal (normalized occupancy) was 0.0886. Sequence ACCGAATG has a binding signal (normalized occupancy) of 0.0811. Work on GGTTGGAC yielded a binding signal (normalized occupancy) of 0.0689. AATGAAAA gave a binding signal (normalized occupancy) of 0.0755. With CAGCGTTA the binding signal (normalized occupancy) was 0.0808. AACCTTCG showed a binding signal (normalized occupancy) of 0.068. GGGCGCCA was tested, and the binding signal (normalized occupancy) was 0.0745. GGAAAGAC was tested, and the binding signal (normalized occupancy) was 0.0735. Work on AAAACTGC yielded a binding signal (normalized occupancy) of 0.0757. ATATTTTC was tested, and the binding signal (normalized occupancy) was 0.0837. For CAGATATA, the binding signal (normalized occupancy) was 0.081. GGGGCTGA showed a binding signal (normalized occupancy) of 0.0775. Work on TTACATAA yielded a binding signal (normalized occupancy) of 0.0775. Work on ACCAAGTG yielded a binding signal (normalized occupancy) of 0.0737. In the case of CTGTCTGA, the binding signal (normalized occupancy) is reported as 0.074. Sequence CACACGTC has a binding signal (normalized occupancy) of 0.0858. For CCCCTGCA, the binding signal (normalized occupancy) was 0.0799. ACGTTCCC gave a binding signal (normalized occupancy) of 0.0819. CGCGGTTC showed a binding signal (normalized occupancy) of 0.0675. In the case of CATGTGTA, the binding signal (normalized occupancy) is reported as 0.131. ACTTCTAG gave a binding signal (normalized occupancy) of 0.0738. GAGTACCA showed a binding signal (normalized occupancy) of 0.0692. AGTATGAG was tested, and the binding signal (normalized occupancy) was 0.0766. For AATGTCAA, the binding signal (normalized occupancy) was 0.0742. AGATTACA was tested, and the binding signal (normalized occupancy) was 0.0748. TAAATTGA gave a binding signal (normalized occupancy) of 0.0794. ATATCGAC showed a binding signal (normalized occupancy) of 0.0799. For CAGCACTA, the binding signal (normalized occupancy) was 0.075. Sequence GGGAGACA has a binding signal (normalized occupancy) of 0.0731. Sequence CTAAATAA has a binding signal (normalized occupancy) of 0.0764. With ATAGCTGA the binding signal (normalized occupancy) was 0.0721. In the case of CGAAAAGA, the binding signal (normalized occupancy) is reported as 0.0756. CTTGTACA showed a binding signal (normalized occupancy) of 0.0753. With GATATTGC the binding signal (normalized occupancy) was 0.0822. ACAGTGGA gave a binding signal (normalized occupancy) of 0.0794. In the case of TCGACTCA, the binding signal (normalized occupancy) is reported as 0.0737. AAAAACAT was tested, and the binding signal (normalized occupancy) was 0.0797. For AAGTTGGA, the binding signal (normalized occupancy) was 0.0711. ATTCCAAG showed a binding signal (normalized occupancy) of 0.0723. Work on CACAGCAG yielded a binding signal (normalized occupancy) of 0.0738. ACCCGGAC showed a binding signal (normalized occupancy) of 0.0711. Work on ACGTCCCA yielded a binding signal (normalized occupancy) of 0.0785. In the case of CTCCAAGA, the binding signal (normalized occupancy) is reported as 0.0679. For AGACACTA, the binding signal (normalized occupancy) was 0.0759. Work on AGCTTTAT yielded a binding signal (normalized occupancy) of 0.0716. CCTGCCAA gave a binding signal (normalized occupancy) of 0.0763. Sequence ACACAATA has a binding signal (normalized occupancy) of 0.0815. For TCCATAAA, the binding signal (normalized occupancy) was 0.0777. For ATATACAC, the binding signal (normalized occupancy) was 0.0871. Sequence AAAGCGTA has a binding signal (normalized occupancy) of 0.0701. CAACCGAG was tested, and the binding signal (normalized occupancy) was 0.0678. Sequence GAGTAATC has a binding signal (normalized occupancy) of 0.0716. CTCTACTC showed a binding signal (normalized occupancy) of 0.0747. For AAGTTTGG, the binding signal (normalized occupancy) was 0.0676. AGCGGTAC was tested, and the binding signal (normalized occupancy) was 0.0717. ATGCCGTA showed a binding signal (normalized occupancy) of 0.0815. ACTCATCG was tested, and the binding signal (normalized occupancy) was 0.0807. For CAATTGCC, the binding signal (normalized occupancy) was 0.0739. ACTCTTGG was tested, and the binding signal (normalized occupancy) was 0.0728. AGGAGCGC was tested, and the binding signal (normalized occupancy) was 0.0659. ATTAGTGC gave a binding signal (normalized occupancy) of 0.0733. In the case of CGGCGCCC, the binding signal (normalized occupancy) is reported as 0.068. Work on ACGTATAA yielded a binding signal (normalized occupancy) of 0.0801. CCATGAAC was tested, and the binding signal (normalized occupancy) was 0.0797. For GCGTTGCA, the binding signal (normalized occupancy) was 0.078.
